According to paper PMC4336329 (PLoS ONE, 2015):
Screen size: about 310,000 compounds; about 2,200 (0.71%) showed an effect of 50% or more. The effect is printed as a negative number. The list shows a part of the results.

molecular target: human ether-à-go-go-related gene (hERG) potassium channel (human, UniProt Q12809); test: primary screen, population patch clamp on CHO cells stably expressing hERG
Sequence (Q12809 whole entry, looked up): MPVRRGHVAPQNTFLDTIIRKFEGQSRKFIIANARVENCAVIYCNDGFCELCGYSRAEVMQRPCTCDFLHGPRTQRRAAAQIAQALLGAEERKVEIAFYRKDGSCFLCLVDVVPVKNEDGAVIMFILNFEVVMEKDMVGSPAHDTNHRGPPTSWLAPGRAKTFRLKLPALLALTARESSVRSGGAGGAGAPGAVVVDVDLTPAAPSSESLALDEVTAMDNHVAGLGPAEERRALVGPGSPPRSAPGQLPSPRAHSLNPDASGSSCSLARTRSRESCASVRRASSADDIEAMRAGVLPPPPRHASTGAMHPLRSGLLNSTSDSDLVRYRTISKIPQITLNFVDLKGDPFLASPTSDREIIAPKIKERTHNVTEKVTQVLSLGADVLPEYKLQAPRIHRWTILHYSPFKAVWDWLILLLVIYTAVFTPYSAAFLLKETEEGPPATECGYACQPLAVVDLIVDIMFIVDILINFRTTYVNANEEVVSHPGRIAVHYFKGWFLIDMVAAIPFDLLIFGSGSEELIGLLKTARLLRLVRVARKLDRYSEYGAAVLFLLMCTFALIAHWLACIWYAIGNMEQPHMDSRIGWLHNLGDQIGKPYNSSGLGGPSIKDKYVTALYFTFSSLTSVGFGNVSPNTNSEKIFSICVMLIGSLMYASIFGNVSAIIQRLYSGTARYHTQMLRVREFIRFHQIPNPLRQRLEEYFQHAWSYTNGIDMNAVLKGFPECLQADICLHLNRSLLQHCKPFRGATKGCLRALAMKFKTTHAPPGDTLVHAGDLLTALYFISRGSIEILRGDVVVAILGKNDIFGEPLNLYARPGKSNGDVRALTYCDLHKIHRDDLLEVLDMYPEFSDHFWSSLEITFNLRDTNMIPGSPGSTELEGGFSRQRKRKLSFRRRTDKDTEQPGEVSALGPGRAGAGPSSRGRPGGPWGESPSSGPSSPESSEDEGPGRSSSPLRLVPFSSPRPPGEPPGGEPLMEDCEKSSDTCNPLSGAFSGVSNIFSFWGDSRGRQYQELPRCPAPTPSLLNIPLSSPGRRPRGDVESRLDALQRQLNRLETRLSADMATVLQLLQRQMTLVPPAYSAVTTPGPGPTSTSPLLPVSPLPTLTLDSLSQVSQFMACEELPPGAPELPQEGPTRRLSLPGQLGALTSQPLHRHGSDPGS

SMILES	hERG current change (%, negative = inhibition) at 1uM [%]
COc1ccc(C(=O)NCCn2nc(C)cc2C)cc1OC1CCN(C(C)=O)CC1	21.2
Cn1cccc1C(=O)NCC(c1ccco1)N1CCCCC1 (stereo not drawn)	-6.83
Nn1c(SCC(=O)N2CCN(S(=O)(=O)c3ccc(Cl)cc3)CC2)nnc1-c1cccs1	-0.867
Nc1nnc(SCCCOc2ccc(F)cc2)s1	12
COc1ccc(S(=O)(=O)N(CC(=O)O)c2ccc(C)cc2)cc1	7.36
CC1=NC(C(F)(F)F)(C(F)(F)F)C2=C(CC(C)(C)CC2=O)N1Cc1ccco1	9.11
O=C(Cc1cccs1)N=Nc1c(O)[nH]c2ccc(Br)cc12	7.49
CC(C)CNC(=O)COC(=O)/C=C/c1ccccc1[N+](=O)[O-]	14.9
CCOc1ccc(-n2c(SCc3ccc(C(=O)OC)o3)nc3c(c2=O)SCC3)cc1	2.46
CCNc1ccc(C(=O)OCC(=O)Nc2cc(C)on2)cc1[N+](=O)[O-]	10.9
COc1cc(C)c(C(=O)Oc2cc(C)c(C(=O)O)c(O)c2C)c(OC)c1C	-0.425
CC(C)(C)c1ccc(O)c(N=Cc2cc(Br)ccc2O)c1	8.85
Cc1cc(C)c(C(=O)CSC2=NC(N)=C(C#N)C3(CCCCC3)C2C(N)=O)cc1C (stereo not drawn)	-0.933
CCc1ccccc1NC(=O)c1cc(-c2ccco2)on1	13
CN(Cc1ccc(Br)cc1)C(=O)CCN1C(=O)c2cccc([N+](=O)[O-])c2C1=O	15.8
Cc1ccc(Cl)cc1N1CCN(S(=O)(=O)N2CCCCC2)CC1	12
COc1ccccc1OCCOCCn1cnc2ccccc2c1=O	12.3
COc1cc(C(=O)Nc2nnc(SCC(=O)NCC3CCCO3)s2)cc(OC)c1OC (stereo not drawn)	16.4
C/C(=C\C1CCCCC1)C(NC(=O)c1ccc(C(F)(F)F)cc1)c1ccc(-c2ccccc2)cc1 (stereo not drawn)	13.9
O=C(Cn1nnc(-c2ccc(Cl)cc2)n1)NCCC1=CCCCC1	10.9
Cc1cc(C)c2c(c1)C1(OCCO1)C(=O)N2	14.2
COc1ccc(-c2nn(C)c(=O)c3ccccc23)cc1CNC(=O)CN1CCOCC1	6.56
COc1ccc(NC(=O)CSc2nncs2)cc1S(N)(=O)=O	12.9

SMILES	hERG current change (%, negative = inhibition) at 1uM [%]
Cl.N[C@H]1C(O)O[C@H](CO)[C@@H](O)[C@@H]1O (stereo partly drawn)	17.3
Cc1c(C(=O)OCCN2CCCCC2)oc2ccccc12.Cl	-13.9
O=C(O)Cn1c(=O)cnc2ccccc21	11.8
Cc1cc2c(cc1S(N)(=O)=O)S(=O)(=O)CCC2	18.6
O=C(NNS(=O)(=O)c1ccc(F)cc1)c1cc(Cl)ccc1O	8.95
CC1(C)Cc2ccccc2/C(=C/C(=O)c2ccccc2)N1	12.2
O=C(CCC(=O)Nc1ccccc1)N/N=C/c1ccccc1F	15.8
CC1CCN(CC(O)COc2ccc(F)cc2)CC1 (stereo not drawn)	-13.3
Cc1cc2c(NCCc3ccccc3)ncnc2s1.Cl	4.42
CC12CCC(=O)N1C(C(=O)NNC(=O)COc1ccccc1F)CS2 (stereo not drawn)	6.72
Cc1cccc(NC(=O)NC2(C)CCS(=O)(=O)C2)c1 (stereo not drawn)	5.83
CCCCN1CC[C@H]2C=CC[C@@H](C(=O)Nc3ccc(Cl)c(C(F)(F)F)c3)[C@H]2C1=O	5.4
Cc1c(CC=C(Cl)Cl)c(=O)[nH]c2c(C)cccc12	15.4
COC(=O)C1=C(C)Nc2c(c(=O)n(C)c(=O)n2C)C1c1cccc(O)c1 (stereo not drawn)	13.1
COc1ccc(OC)c(-c2csc(N(Cc3ccco3)C(=O)c3cccs3)n2)c1	-0.179
COc1ccc(C(=O)COC(=O)CNC(=O)c2cccs2)cc1Br	9.1
N#CCOC(=O)C1c2ccccc2Oc2ccccc21	10.8
CCOc1ccccc1-n1cnc2cc(C(=O)NCc3ccco3)ccc21	-0.462
O=C(c1csc(Nc2cccc3ccccc23)n1)N1CCCC1	0.12
CC(=O)c1ccc(NS(=O)(=O)c2ccccc2)cc1	-2.4
S=c1[nH]cnc2sc(-c3ccccc3)cc12	-1.18
COCCNc1nc(N)c([N+](=O)[O-])c(NCc2ccccc2)n1	13.6
